Laboratory results: paper PMC12136788
Some of the results follow.

B1: chr17:64801638:64801639:+_ENSG00000154229_ENST00000413366|hu_mus|hu_hu_hu_mus_False|38_78 (ssRNA)
RNA: GGGAGUUCUACAGUCCGACGAUCUAUAUAUAUAUAUACAUAUGUACACAUAUAUAGUAAGAGCCUAGUUAAACGUGUAAAGUAGCCAUUCAUUUUUGAAAUUUUAUCUACAUUAAAAAAUUAAUAUAUCUGAUAGAGUGCCAGCAACAGAGGAUUGAGCAUCA
B2: chr8:42227462:42227463:+_ENSG00000070501_ENST00000265421|hu_hu|FALSE|FALSE (ssRNA)
RNA: GGGAGUUCUACAGUCCGACGAUCUUCUCCUGCAACUCCAGUGACUCCCAAGGGACGGAUGGUGUACUCAUUGAUUGUGAAACCCUUUUCUAGGGCAUGAGCCCUCAUAUUCUUAUUGAAAAUAUCACUCCCAGUGAAAUAGAGCAACAGAGGAUUGAGCAUCA
B3: chr3:55808730:55808731:-_ENSMUSG00000027799_ENSMUST00000029374|mus_hu|motif|central (ssRNA)
RNA: GGGAGUUCUACAGUCCGACGAUCUGAAGUUGUAUGGAUUUUGAAUUCUUUUUCUUCUAUUAUACUGGAUGUACAAGUUAAGUCGGCGCUACCGGUCAUGUGAGCAAGCAAUCCAAGAUCAUCACUAACACCAAGAUGUACUUGCAACAGAGGAUUGAGCAUCA
B4: chr11:95532483:95532484:+_ENSG00000166037_ENST00000540830|hu_hu|motif|central (ssRNA)
RNA: GGGAGUUCUACAGUCCGACGAUCGCUGUUGCUUUCUGGAUAGGCAAGUGUAGGCUUACUUGGGGAGCGUCGUAGAUCACGGUUAAGGAAAGGCUUAUCCGAAGGAUAUACUACAUAUGGAGAUGAAGAAUGCCGAACCAUGCUCAACAGAGGAUUGAGCAUCA
B5: chr7:148072430:148072431:+_ENSMUSG00000025487_ENSMUST00000026560|mus_hu|FALSE|FALSE (ssRNA)
RNA: GGGAGUUCUACAGUCCGACGAUCAAAGUAAGAGCCACAUUAGGAUCAGUCAUCUGUCUAACUACAUGAAGAAUGAUUUCCACGAGGGACAAAGGGUUCACCCUUAAUGAGACCAUCUCCUUGGGCAAAGCACGGAUCCUGCACCAACAGAGGAUUGAGCAUCA
B6: chr5:23024286:23024287:-_ENSMUSG00000062604_ENSMUST00000088392|mus_hu|FALSE|FALSE (ssRNA)
RNA: GGGAGUUCUACAGUCCGACGAUCACACGCCGUGCUCCAGAUGUCCGCAGGGGUGCUGUACCCCGCUCCUAUUAAAACCUCUAUGGAGCGGUACUGACGCGUCUGGAUGUCUUCCGUGAAGUGUUUAUGCACCCAACAAGCAUUCAACAGAGGAUUGAGCAUCA
B7: chrX:39613801:39613802:+_ENSMUSG00000025862_ENSMUST00000069619|mus_hu|motif|central (ssRNA)
RNA: GGGAGUUCUACAGUCCGACGAUCCAAAUUUAAAGGUGGAUGGCUCUCCCCUUGCGGAUUAGGCUCUUUAAAAGCAAAUUCGGUGCCAUCUUUGUGUAGCAUGGCAAUGGCUUCUCUUGUUUUCAACUGAUCAAGUCCAAAAGUCAACAGAGGAUUGAGCAUCA
B8: chr4:144460044:144460045:+_ENSG00000153147_ENST00000283131|hu_mus|hu_hu_hu_mus_False|48_48 (ssRNA)
RNA: GGGAGUUCUACAGUCCGACGAUCACGGUCCAUAGCCUGAAGAUCAACUUGCGGAUUCCAAUCUGAGUCAUAUAAAAUGACUACAUCAGCAGUCGCAAGAUUGAUGCCCAGACCACCAGCACGUGUGCUUAGCAUAAAUACAAACAACAGAGGAUUGAGCAUCA
B9: chr4:134969704:134969705:-_ENSMUSG00000059713_ENSMUST00000030606|mus_hu|FALSE|FALSE (ssRNA)
RNA: GGGAGUUCUACAGUCCGACGAUCUUUUCCACUGCUUAAUUAUGUGUGAGAUUUUCCCUUUUAAAAUAAAUCUAUGGUCUGUGAAAUAGUCUGUAUAAAAAUAUGAAGCCUUGAAUAGGCCAGUCAUAGCAGUUCCGUCUUGAACAACAGAGGAUUGAGCAUCA
B10: chr3:148479741:148479742:-_ENSMUSG00000028184_ENSMUST00000106128|mus_hu|FALSE|FALSE (ssRNA)
RNA: GGGAGUUCUACAGUCCGACGAUCUUAAAGCCUACGUCUUGUAUAUAAUACAAUGCAGGCCUACAAAAAUGGUGCAGCCAUAUUUACAAAUUUAGUUCACAGACUGCUGCAGUAAAAUGGCUGGAAAGUUUUGUUUUGCUUGUUCAACAGAGGAUUGAGCAUCA
B11: chr1:225977196:225977197:+_ENSG00000143742_ENST00000304786|hu_mus|motif|central (ssRNA)
RNA: GGGAGUUCUACAGUCCGACGAUCAUUCCGUUUCCAAAAAUAAAGGUUUUCUAACUGGAAACCCCGACAUUCCUACUCUCGGAAGCAAACUUUAGGACGCAGGCUGGUCUCUCGGCUUUGACAGCUCCAUUACGUAAGUAUAUCCAACAGAGGAUUGAGCAUCA
B12: chr3:139257661:139257662:-_ENSG00000114115_ENST00000232219|hu_mus|FALSE|FALSE (ssRNA)
RNA: GGGAGUUCUACAGUCCGACGAUCCACACACUGGAGUUUGUCACCAUCCCAGCUCACAGUGGUCAUGCACUUGCGGUCGUCUAUGCCUGUCAGAUCUUCCUCAAACUCCUUCCCAACUUGGAAGUCCAUGAUAUAGUUCCGAAACAACAGAGGAUUGAGCAUCA
B13: chr5:125867735:125867736:-_ENSMUSG00000008348_ENSMUST00000136312|mus_mus|motif|central (ssRNA)
RNA: GGGAGUUCUACAGUCCGACGAUCGGUUUUGCCUGUCAGGGUCUUCACAAAGAUCUGCAUCCCACCUCUGAGGCGAAGGACGGAGUGCAGGGUGGACUCUUUCUGGAUGUUGUAGUCUGACAGGGUGCGGCCAUCUUCCAGCUGCAACAGAGGAUUGAGCAUCA
B14: chr12:39756943:39756944:-_ENSG00000139116_ENST00000544797|hu_mus|hu_hu_hu_mus_False|1_98 (ssRNA)
RNA: GGGAGUUCUACAGUCCGACGAUCGGUUUGGCUGUUACCCCCGAGGGAAUCCUGCAAGAGUCUUGUCAGCUUAGAGUCUCUGUAAGGGACAUGGGUGGCUCUCUUGCUCUUGUCCCCCAAGGCGCUGAUUACAUUCCCAAGUGCCAACAGAGGAUUGAGCAUCA
B15: chr12:55961440:55961441:-_ENSMUSG00000062929_ENSMUST00000078124|mus_hu|FALSE|FALSE (ssRNA)
RNA: GGGAGUUCUACAGUCCGACGAUCGAUAUUCAAAAUAUCUUUAGUGUUGCAGGACUCACAUGGUAAACAUAAAACUCCUACACUUAUUCAGUAGUGUACACUCAAUGGAAAACAAAAAGGCAUUAAUAACAGCUAUUUCUUUUACAACAGAGGAUUGAGCAUCA
B16: chr20:57566945:57566946:+_ENSG00000101158_ENST00000344018|hu_hu|FALSE|FALSE (ssRNA)
RNA: GGGAGUUCUACAGUCCGACGAUCGUGAACGGUUUCGACAGCUUUUGACGUUGACUUCAGCUCAUCUUUAUUGAUGCUCACUCGCUUGUUCUUCUUCCAGGUCUCAACCACGCUUGCUGCGUACGCCAAGAUGUGGAUGUAUUUCAACAGAGGAUUGAGCAUCA
B17: chr11:119170673:119170674:+_ENSG00000110395_ENST00000264033|hu_hu|motif|central (ssRNA)
RNA: GGGAGUUCUACAGUCCGACGAUCGUGGGAACUGAAGGACACCUUCAAAUGCACUCAAGACCCAUAAAAUAAUAAAACAUACGGGCUGCUCCAUUUUCAUUUCACCACUUUGAAAUCUUGGAACCACUGAUGUGAUAUCCCACACAACAGAGGAUUGAGCAUCA
B18: chr19:53710959:53710960:+_ENSMUSG00000024974_ENSMUST00000025930|mus_hu|FALSE|FALSE (ssRNA)
RNA: GGGAGUUCUACAGUCCGACGAUCACGAAUCUCAUCAUUCAGUGCAUCUACUCUCUUCUGAUCUUCCAAACUCAGUUGAGAAAGCAAAUCAGUUCCCAGUUCUGCUUUCAAUGACUCUCUGGUAGACUCCAUAGCAUGCAAGCUCAACAGAGGAUUGAGCAUCA
B19: chr11:68836070:68836071:+_ENSMUSG00000020898_ENSMUST00000116359|mus_mus|FALSE|FALSE (ssRNA)
RNA: GGGAGUUCUACAGUCCGACGAUCCCUCACAUACAGGCUUCCACUCCUACAUUCUUGUUCCGAAUCUCCCAAUAGGUCUACUAGUGUCCCUAAAAGUAUCAGCUGCUCCCGGGGCAGGACGCCGUCCCCCGGCCGGCCUCCGCGCAACAGAGGAUUGAGCAUCA
B20: 32611910_32612235_191_CDS_ENSG00000144635_ENST00000273130|human|control|control (ssRNA)
RNA: GGGAGUUCUACAGUCCGACGAUCCCAAAGGUUCUGCCCGUCCUCGUCGUCGCCUGCCGCGGCGCCACCGUUGCCCGACGCUAUCUCGUUGCCCAAGGGGCCGCCAGUGUAAGUCGAGGAUAAUCCCGGCGGAGAAGAACCGAACAACAGAGGAUUGAGCAUCA
B21: 32637644_32637764_2913_3pUTR_ENSG00000025800_ENST00000373625|human|control|control (ssRNA)
RNA: GGGAGUUCUACAGUCCGACGAUCAUCUCUUUUUGGUCUUCCUCACAGUAUCCUACUUACCGAAAUGACAGACAGUUCUUCCUCUUGAGACCAAUUAAGAUUGACCUACCUAAUAUAUAGAAUAUAAAAAAAUACAGAACUUUUCAACAGAGGAUUGAGCAUCA
B22: 48026265_48026385_864_CDS_ENSG00000116062_ENST00000540021|human|control|control (ssRNA)
RNA: GGGAGUUCUACAGUCCGACGAUCAAAGUUCUGAGACUUAAUCUGCCACCACUUCCUCAUCCCAGGAGUACAAGAAUUGAGGAAAUCCUCAGGCACAUAGAGUGUAGAUGCAUCAAAAUCGGGGUGAUCAGGCCUCCUCCUGUGCAACAGAGGAUUGAGCAUCA

Biological target: T1, UNK ZnF1-3 (human, UniProt Q9C0B0 31-174)
T1 sequence: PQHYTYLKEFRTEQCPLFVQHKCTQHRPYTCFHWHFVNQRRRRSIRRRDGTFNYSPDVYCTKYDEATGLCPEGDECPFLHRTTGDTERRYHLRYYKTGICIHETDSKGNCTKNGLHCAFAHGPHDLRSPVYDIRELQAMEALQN
Experiment: nsRBNS (natural sequence RNA bind-n-seq); RBNS binding buffer (assumed for nsRBNS): 25 mM Tris pH 7.5, 150 mM KCl, 3 mM MgCl2, 0.01% Triton X-100, 500 ug/ml BSA, 20 U/ml SUPERase-In, 4 C; UNK is unkempt and MSI1 is Musashi-1; names of the RNAs are library labels; protein concentration not given here; high values mean tight binding

| Binder | binding signal |
| --- | --- |
| B1 | 2.88 enrichment R |
| B2 | 1.18 enrichment R |
| B3 | 0.871 enrichment R |
| B4 | 1.19 enrichment R |
| B5 | 1.35 enrichment R |
| B6 | 0.868 enrichment R |
| B7 | 0.899 enrichment R |
| B8 | 0.633 enrichment R |
| B9 | 1.61 enrichment R |
| B10 | 0.526 enrichment R |
| B11 | 1.07 enrichment R |
| B12 | 0.87 enrichment R |
| B13 | 0.652 enrichment R |
| B14 | 0.542 enrichment R |
| B15 | 1 enrichment R |
| B16 | 0.302 enrichment R |
| B17 | 1.21 enrichment R |
| B18 | 1.03 enrichment R |
| B19 | 1.16 enrichment R |
| B20 | 0.938 enrichment R |
| B21 | 1.08 enrichment R |
| B22 | 1.75 enrichment R |
